{
  "source": "paper PMC4592949",
  "about": "(eLife, 2015)",
  "proteins": {"B1": {"name": "recombinant FTH1 R23A-only ferritin complex (complex)", "chain": "not shown", "notes": "ferritin heavy chain FTH1, point mutant; Forms 450 kDa complexes like the wild type; also called R23A FTH1-only complexes; source: E. coli, purified (Ni-IMAC, Senp1 cleavage, Q-sepharose, Superose 6 gel filtration); not shown: His6-Sumo, N-terminal, cleaved; copies: 24"}},
  "biological_target": "the molecule itself",
  "experiment": "SEC; gel filtration of recombinant FTH1-only complexes on a Superose 6 column; main peak at about 14 ml, apparent 450 kDa",
  "data": [
    {"protein": "B1", "values": [
      {"measurement": "binding result", "value": "binds"}
    ]}
  ]
}
